System: GT1-7 cells
Experiment: H2O2 (oxidative stress) toxicity, neuroprotection, MTT dye reduction assay
Conditions: 500 micromolar H2O2, FIG. 4A

SMILES	protection against oxidative stress (in words)
CN(CC(=O)O)C(=N)N [Creatine, creatine]	nearly complete dose dependent protection
NC(=O)c1cccnc1 [Nicotinamide, nicotinamide]	nearly complete dose dependent protection

From patent US7358278B2, “Cellular phosphorylation potential enhancing compositions preparation and use thereof” (priority 1994, dated 2008)
